Experimental data reported in PubChem BioAssay AID651820 (National Center for Advancing Translational Sciences (NCATS), 2012).
Among all 340,000 compounds or so, about 12,000 (3.5%) were called active. Inconclusive means that the source gave no clear call. Such entries were picked first, then a sample of the others. Calls follow the shape of the dose curve; as a rule, active = well fitted inhibition curve with a large enough effect; inconclusive = small, poorly fitted or top-dose-only effect, or another doubt; inactive = no such curve, though single readings can be large or run the other way. Potencies of inconclusive entries are left out as doubtful fits.

experiment: qHTS Assay for Inhibitors of Hepatitis C Virus (HCV); conditions: Huh7.5.1 HCVcc-Cre (HCVcc is cell-culture hepatitis C virus) infection, luciferase reporter, 44 h; activity change, negative = inhibition: at 41.8 µM (top of the series) unless noted
Text: Hepatitis C virus (HCV) infects about 200 million people in the world. Many infected people progress to chronic liver disease including cirrhosis with a risk of developing liver cancer. To date, there is no effective vaccine for hepatitis C. Current therapy based on interferon is only effective in about half of the patients and is associated with significant adverse effects. The fraction of people with HCV who can complete a successful treatment is estimated to be no more than 10 percent. Recent development of direct-acting antivirals against HCV, such as protease and polymerase inhibitors, is promising but still requires combination with peginterferon and ribavirin for maximal efficacy. In addition, these agents are associated with high rate of resistance and many have significant side effects. Due to the lack of a culture system for infectious HCV, the search for new HCV drugs has been greatly hampered. […] High-throughput screening (HTS) with an infectious HCV system would cover the complete spectrum of potentially druggable targets in all stages of HCV lifecycle, and would have more biological relevance than other cell-based assays. Moreover, targeting several key processes in the viral life cycle may not only increase antiviral efficacy; more importantly, it may also reduce the capacity of the virus to develop resistance to the compound. The goal of this project is to identify novel HCV inhibitors as new therapies for hepatitis C, using a highly sensitive and specific assay platform which is based on a HCV infectious cell culture system established in the laboratory and adapted for high-throughput HCV drug screen. NIH Chemical Genomics Center [NCGC] NIH Molecular Libraries Probe Centers Network [MLPCN] MLPCN Grant: MH095511 Assay Submitter (PI): Jake Liang, NIDDK
The assay will start with plating 1,000 cells/well in 3 µL volume and culture for 4 h. Then 23 nL of compounds from the library collection will be added to each well, followed by adding 2.5 µL of HCVcc-Cre virus (~ 0.5 moi) and further cultured for 44 h before the luciferase assay. A volume of 4.5 µL luciferase substrates will be added to each well and the plates will be incubated at room temperature for 15 min. and then read for 15 sec. for the luciferase activity
% is scaled to controls: 0 for no effect and ±100 for the full control effect; tags tell the direction and shape of the fitted curve.

Row | SMILES | activity change, negative = inhibition | Potency
1 | Clc1cccc(N2CCN(c3nnnn3-c3ccccc3)CC2)c1 | inactive: -22.3% | 
2 | CC(Oc1ccccc1)C(=O)N1CCN(c2ccc(N3CCCCCC3)nn2)CC1 (stereo unspecified) |  | inconclusive [inhibitor, single point]
3 | Cc1ccc(C(=O)Nc2ccc(SC(F)F)cc2)s1 |  | inconclusive [inhibitor, full curve, poor fit]
4 | Cc1ccc(OCC(=O)Nc2cc(C(=O)O)cc(C(=O)O)c2)cc1C | inactive: -3.34% | 
5 | CCOC(=O)N1CCC(NC(=O)CSCc2nc(-c3ccc(OCC)cc3)oc2C)CC1 |  | inconclusive [inhibitor, partial curve]
6 | O=C(NC1CCCC1)C(c1ccccc1)N(C(=O)c1ccco1)C1CCCC1 (stereo unspecified) | inactive: -17.3% | 
7 | c1ccc(CNCC2COc3ccccc3O2)cc1 (stereo unspecified) | inactive: 8.98% | 
8 | O=C(Nc1cc(-c2ccccc2)[nH]n1)c1ccccc1 | inactive: -26.3% | 
9 | O=C(CCn1nc(-c2ccc(Cl)cc2)ccc1=O)N1CCN(c2ccccc2)CC1 |  | inconclusive [inhibitor, single point]
10 | O=C(Nc1ccc(F)cc1)c1nc(S(=O)(=O)Cc2ccccc2)ncc1Cl |  | active: 8.91 µM
11 | Fc1cccc(CSc2nnc3c(n2)[nH]c2ccccc23)c1 |  | inconclusive [inhibitor, full curve]
12 | Cc1cccc(Cn2c(=O)n(CCCC(=O)NCc3ccco3)c(=O)c3ccccc32)c1 |  | inconclusive [inhibitor, partial curve]
13 | O=C(c1ccccc1)c1nnc(-c2ccccc2F)o1 | inactive: 7% | 
14 | COCCn1c(SCC(=O)c2[nH]c(C)c(C(C)=O)c2C)nc2ccccc21 |  | inconclusive [inhibitor, single point]
15 | COc1ccccc1Nc1nc(C)cs1 |  | inactive
16 | CCOC(=O)c1c(C)[nH]c(C(=O)N2CCc3cc(OC)c(OC)cc3C2)c1C |  | active: 11.2 µM
17 | CC(C)C(=O)Nc1ccc2c(c1)oc1ccccc12 |  | inconclusive [inhibitor, single point]
18 | Cc1ccc(CN2C(=O)CN=C(c3ccccc3)c3ccccc32)cc1 | inactive: 16.2% | 
19 | O=C(CNc1cccc(S(=O)(=O)N2CCCCC2)c1)Nc1ccccc1F |  | inconclusive [inhibitor, single point]
20 | COC(=O)c1c(C(=O)OC)c(-c2ccc(Cl)c(Cl)c2)n2c1CCC2 |  | inconclusive [inhibitor, partial curve]
21 | Oc1c(Cl)cc(Cl)cc1/C=N/NC(=S)NC1CC2C=CC1C2 (stereo unspecified) |  | inconclusive [inhibitor, single point]
22 | Cc1ccc(C(=O)OCc2nc3ccccc3s2)o1 | inactive: -8.78% | 
23 | O=C(Nc1ccc(Br)cc1)c1cccc(S(=O)(=O)Nc2ccccn2)c1 | inactive: -19.4% | 
24 | CC(C)OCCCNC(=O)NC(=O)c1ccc(Cl)cc1 |  | inconclusive [inhibitor, single point]
25 | CCCc1sc(N/N=C/c2ccccn2)nc1-c1ccc(Br)cc1 |  | active: 3.16 µM
26 | Cc1csc(SCC(=O)c2cc(C)n(Cc3cccs3)c2C)n1 |  | active: 10 µM

Row | SMILES | activity change, negative = inhibition | Potency
27 | Cc1cc(NC(=O)C(C)SCC(=O)Nc2ccccc2N2CCCCC2)no1 (stereo unspecified) |  | inconclusive [inhibitor, full curve]
28 | Cc1ccc(C(=O)N(Cc2nc3ccccc3c(=O)[nH]2)C2CCCC2)cc1 |  | inconclusive [inhibitor, partial curve]
29 | N#CSCC(=O)N1c2ccccc2CCc2ccccc21 |  | inconclusive [inhibitor, partial curve]
30 | CC(C)CCn1c(N)c(S(=O)(=O)c2cccs2)c2nc3ccccc3nc21 |  | inconclusive [inhibitor, single point]
31 | COc1cccc(/C=C/C(=O)NCc2ccc(S(N)(=O)=O)cc2)c1 |  | active: 10 µM
32 | CCOc1c(/C=C(\C#N)C(N)=O)c2ccccc2n1CC |  | inconclusive [inhibitor, partial curve]
33 | COc1cc(NS(=O)(=O)c2ccc(Cl)cc2)c(C(=O)O)cc1OC | inactive: 2.67% | 
34 | O=C(Nc1ccon1)Nc1ccc(F)cc1F | inactive: 3.37% | 
35 | COc1cc(-c2cc(C(=O)OCC(=O)NC3CC3)c3ccccc3n2)cc(OC)c1OC |  | inconclusive [inhibitor, partial curve]
36 | O=C1C(Cl)=C(NC(=O)c2ccccc2)C(=O)C(Cl)=C1NC(=O)c1ccccc1 |  | inconclusive [inhibitor, single point]
37 | O=C(CN1C(=O)c2ccccc2S1(=O)=O)NCc1c(F)cccc1F | inactive: -22.3% | 
38 | COc1ccc(C=O)cc1CN1C(=O)c2ccccc2C1=O | inactive: 9.3% | 
39 | CC(C)(C)NC(=O)CSc1nnc(NC(=O)CCn2cnc3ccccc3c2=O)s1 |  | inconclusive [inhibitor, single point]
40 | CCOC(=O)c1cccc(N2C(=O)C3C(C2=O)C2C=CC3C23CC3)c1 (stereo unspecified) | inactive: 5.35% | 
41 | CC(=O)c1ccc(N2CCN(c3ccc(S(=O)(=O)NCCCN(C)C)cc3[N+](=O)[O-])CC2)cc1 |  | active: 11.2 µM
42 | Cc1cc(CN2CCCC(C(=O)Nc3cccc(-n4cccn4)c3)C2)cc(C)c1O (stereo unspecified) |  | active: 12.6 µM
43 | CC1CCCCN1CC(O)COc1ccc(OCC(O)CN2CCCCC2C)cc1 (stereo unspecified) |  | inconclusive [inhibitor, partial curve]
44 | Nc1cc2nc3ccccc3nc2cc1N |  | inconclusive [inhibitor, partial curve]
45 | Cn1c(-c2ccc(N)cc2)nc2ccccc21 | inactive: -26.6% | 
46 | CCOc1ccc(N(CC(=O)NC2CC3CCC2C3)S(=O)(=O)c2ccc(C)cc2)cc1 (stereo unspecified) |  | active: 6.31 µM
47 | O=c1c2ccccc2nc(/C=C/c2cc(Br)ccc2O)n1CCCO |  | inconclusive [inhibitor, full curve]
48 | CC(C)(C)c1ccc2c(c1)OC(C(=O)N/N=C\c1ccc(-c3cccc(C(=O)O)c3)o1)CO2 (stereo unspecified) | inactive: 6.64% | 
49 | CC(C)N1CC(COc2ccc(Br)cc2)OC1=O (stereo unspecified) | inactive: 0.0537% | 
50 | Cc1oc(-c2ccc(Cl)cc2)nc1CN1CCCC(C(=O)N2CCN(C(=O)c3ccco3)CC2)C1 (stereo unspecified) |  | active: 2 µM
51 | COc1cc(C(=O)ON=C2C3CC4CC(C3)CC2C4)cc(OC)c1OC | inactive: -25.1% | 
